The results in this text go back to PubChem BioAssay AID463173 (ICCB-Longwood Screening Facility, Harvard Medical School, 2010).

SMILES strings stand for the structures. The campaign covered roughly 52,000 compounds. About 4,300 (8.3%) were called active. No stated cut-off is given here; in the data, active means survival mostly below about 52% (no sharp cut-off); inactive means mostly above about 56%. The list shows a part of the results.

This assay concerns DeltatarO mutant. Nature of the assay: S. aureus survival, RN4220 and DeltatarO strains – OD600, teichoic acid synthesis inhibitors, primary screen (AID 463173). To be noted: S. aureus RN4220 wild type/DeltatarO growth, OD600, 18 h, stronger effect = lower value, screened at 18.75 µg/mL (by protocol).
As to `Cc1cc(C)c(NC(=O)Cn2cnc3c(oc4ccccc43)c2=O)c(C)c1`, the survival is inactive: 69%.

As for `Cc1oc(-c2ccccc2Cl)nc1CSc1nc2ncccc2[nH]1`, the survival is inactive: 80%.

On to `O=C(NCc1cccc(Cl)c1)c1ccc2nc(N3CCCCC3)sc2c1`, for which the survival is inactive: 79%.

Regarding `COc1ccccc1N1CCN(c2ncnc3onc(-c4cccc(Cl)c4)c23)CC1`, the survival was inactive: 74%. As to `CCOC(=O)c1c(C)n(-c2ccccc2)c2ccc(OC(=O)c3cccc(OC)c3OC)cc12`, the survival is inactive: 45%. In the case of `COc1ccc(S(=O)(=O)Nc2c(C)nc3nc(C)[nH]n3c2=O)cc1` it was inactive: 74%; in that of `CCc1cccc(N2C(=O)CSC23C(=O)Nc2ccccc23)c1` (stereo unspecified), inactive: 85%; in that of `CCN(CC)C(=O)c1ccc(Nc2nnc(-c3ccc(C)c(S(=O)(=O)NC)c3)c3ccccc23)cc1`, inactive: 75%. On to `CCOC(=O)c1c(NC(=O)c2cc(-c3cccc(OC)c3)on2)sc2c1CCCC2`, for which the survival was active: 46%. The same measure for `COc1ccc(CC(=O)NCC(c2cccs2)S(=O)(=O)c2ccc(C)cc2)cc1` (stereo unspecified): inactive: 107%; for `COc1cccc(CNC(=O)Cc2c(C(=O)O)c(C)cn2C)c1`: active: 8%; for `CC(C)c1ccc(NC(=O)CN2C(=O)COc3ccc(S(=O)(=O)N4CCCCCC4)cc32)cc1`: inactive: 91%. Consider `OCCNc1ncnc2ccc(Br)cc12`, for which the survival was inactive: 67%. On to `CCc1ccc(NC(=O)Cn2c(=O)n(Cc3ccco3)c(=O)c3oc4ccccc4c32)cc1`, for which the survival is inactive: 75%. The same measure for `O=C(NCc1cccs1)c1ccc(CSc2nc3cccnc3n2Cc2ccccc2F)cc1`: inactive: 102%; for `CCCCOc1ccccc1CC1C(=O)Nc2ccc(Br)cc21` (stereo unspecified): active: 14%. The same measure for `COc1ccc2c(c1)c(N1CCCC1=O)c(C(=O)Nc1ccccc1C(F)(F)F)n2C`: inactive: 86%; for `COc1ccc(C2=C(C)C(=O)N(Cc3ccc(C(=O)NCc4cccc(C)c4)cc3)S2(=O)=O)cc1`: inactive: 86%.

For `COc1ccc(-c2noc(N3CCC(C(=O)N4CCN(c5cccc(C)c5C)CC4)CC3)n2)cc1`, the survival was inactive: 83%. As to `COc1ccc(C2=NC(c3ccncc3)=Nc3ccc(OC)cc3N2)cc1`, the survival was inactive: 104%. In the case of `CCOc1ccc(NC(=O)CCNS(=O)(=O)c2cccc3nonc23)cc1` it was inactive: 70%.

`O=C(COc1ccc(F)cc1)Nc1ccc2nc(SCC(=O)N3CCOCC3)sc2c1`: the survival is inactive: 82%. In the case of `COc1ccc(-c2noc(COc3cc(C)ccc3C)n2)cc1OC`, the survival is active: -5%. In the case of `O=C1[C@@H]2CSC(c3ccc(Cl)cc3)N2C(=O)N1c1ccccc1` (stereo partly specified) it was inactive: 71%; in that of `CC(C)c1ccc(N2C(=O)CSC23C(=O)N(C)c2ccccc23)cc1` (stereo unspecified), inactive: 75%.

With `CC(C)Oc1ccc(Cc2cnc(=S)[nH]c2N)cc1`, the survival was inactive: 93%. The same measure for `CCOC(=O)C1CCCN(C(=O)c2nn(-c3ccc(C)cc3)c(=O)n(C)c2=O)C1` (stereo unspecified): inactive: 71%; for `CCc1nnc2c(N3CCN(c4cc(Cl)ccc4C)CC3)nc3ccccc3n12`: active: -5%. The same measure for `COc1ccc(CC(=O)N2CCc3cc(OC)c(OC)cc3C2COc2ccc3c(C)cc(=O)oc3c2)cc1` (stereo unspecified): inactive: 135%; for `CCOc1ccc(CNS(=O)(=O)c2ccc3c(c2)CCCN3C(C)=O)cc1OC`: inactive: 67%.

As to `CCOC(=O)N1CCN(Cc2ccccn2)CC1`, the survival is inactive: 63%. Regarding `Cc1nc2sccn2c(=O)c1S(=O)(=O)Nc1ccc(N2CCOCC2)c(Cl)c1`, the survival was inactive: 97%. In the case of `Cc1ccc(NC(=O)Cn2ncn3c(cc4ccccc43)c2=O)cc1F`, the survival is inactive: 84%. In the case of `CCC1=C(c2ccc(C)cc2)S(=O)(=O)N=C1N1CCC(C(=O)Nc2ccccc2F)CC1`, the survival is inactive: 88%. In the case of `COC(=O)c1c(SCC(=O)Nc2cc(OC)cc(OC)c2)[nH]c2ccc(C)cc2c1=O` it was inactive: 129%; in that of `O=C1CCCN1C(=O)CN1CCCCC1`, inactive: 75%; in that of `CCOc1ccc(CNCc2c(C(=O)O)c(C)n(Cc3cccc(OC)c3)c2C)cc1OC`, inactive: 76%. For the molecule `Cc1cc(CN2CCN(c3ccccc3F)CC2)cs1`, the survival was inactive: 80%. In the case of `CCC1CCC(C(=O)NC(C(=O)Nc2cccc(OC)c2)C(C)C)CC1` (stereo unspecified) it was inactive: 69%.

For the molecule `Cc1nc2nc(CNC(=O)OC(C)(C)C)nn2c(C)c1CCC(=O)NCc1ccc(F)cc1`, the survival is inactive: 92%. In the case of `CC(NC(=O)c1ccccc1)c1n[nH]c(=S)n1C` (stereo unspecified) it was inactive: 74%. Turning to `O=C(CN1C(=O)COc2ccc(Cl)cc21)Nc1ccc(F)cc1`, the survival was inactive: 67%. The same measure for `CCN(C(=O)c1nn(-c2ccc(OC)c(Cl)c2)c(=O)c2c1c1ccccc1n2C)c1cccc(C(F)(F)F)c1`: inactive: 75%; for `CN1CC(=Nc2nonc2N)N(C)C1=O`: inactive: 90%. With `COc1ccc(-c2nc3ccc(NS(=O)(=O)c4ccc(C)cc4)cc3o2)cc1`, the survival was inactive: 45%. Consider `O=C(OCc1cc(=O)n2nc(-c3cccs3)sc2n1)c1ccc(Cl)cc1`, for which the survival is inactive: 73%. The same measure for `CCOC(=O)c1c(-c2ccc(OC)cc2)oc2ccc(OCc3ccccc3C)cc12`: inactive: 51%; for `Cc1ccc2cc(C#N)c(N3CCCN(S(=O)(=O)c4ccccc4)CC3)nc2c1`: inactive: 69%; for `CCOC(=O)c1c(C)[nH]c(C)c1S(=O)(=O)N1CCCC(C(=O)NCc2cccc(C)c2)C1` (stereo unspecified): inactive: 88%. Regarding `CCN(CC)CCNC(=O)C1CCN(c2nn3cc(-c4ccc(F)cc4)nc3s2)CC1`, the survival was inactive: 79%.

For `CN(C(=O)Nc1ccccc1)C1CCS(=O)(=O)C1` (stereo unspecified), the survival was inactive: 94%. For the molecule `O=c1cc(-c2ccccc2)nc(SCc2nc(-c3ccccc3Cl)no2)[nH]1`, the survival is inactive: 69%. In the case of `CCOc1cc(C(=O)Nc2cc3c(cc2N2CCOCC2)n(C)c(=O)n3C)cc(OCC)c1OCC`, the survival was inactive: 90%. On to `COc1ccc(CNC(=O)CCCN2C(=O)CSc3c2c(C)nn3-c2ccccc2)cc1`, for which the survival is inactive: 80%. In the case of `COC(=O)c1cc2sc(C)cc2n1Cc1cccc(OC)c1`, the survival was active: 1%. Turning to `Cc1ccc(N2CC(NC(=O)c3cccs3)CC2=O)cc1C` (stereo unspecified), the survival was inactive: 91%. The same measure for `Cc1cccc(NC(=O)c2ccc(-n3cnc4cccnc43)cc2)c1C`: inactive: 82%; for `COc1cc(NC(=O)c2cccc3c2C(=O)N(C2CCCCC2)C3)cc(OC)c1OC`: inactive: 53%; for `COc1cccc(N=Nc2c(O)[nH]c(=O)[nH]c2=O)c1`: inactive: 101%.

In the case of `Cn1c(C(=O)N2CCc3ccccc32)cc2sccc21`, the survival was inactive: 91%.

Take `Oc1ccccc1-c1nc(/C=C/c2ccccc2Cl)nn1-c1ccccc1`: the survival was active: 14%. Turning to `CC1CCN(c2nc(N3CCCCC3)nc(N3CCCCC3)n2)CC1`, the survival is inactive: 62%. As for `Cc1ccccc1CNC(=O)CCCn1c(=O)c2cccn2c2cccnc21`, the survival was inactive: 114%. As to `CNc1ncnc2c1cnn2-c1ccc(C)c(C)c1`, the survival was inactive: 85%.

In the case of `CCOc1ccc(NC(=O)C2CCC(CNS(=O)(=O)c3ccc(Br)s3)CC2)cc1` (stereo unspecified), the survival is inactive: 87%. Turning to `COc1ccc(OC)c(CNC(=O)C(C)n2c(C)c3cnn(-c4ccccc4)c(=O)c3c2C)c1` (stereo unspecified), the survival was inactive: 112%.

As for `CC1=C(c2ccc(C)c(C)c2)S(=O)(=O)N=C1N1CCC(C(=O)N2CCC(C)CC2)CC1`, the survival is inactive: 72%.

In the case of `CCOc1cc(/C=C(\C#N)C(=O)NCC2CCCO2)ccc1O` (stereo unspecified), the survival was inactive: 71%.

As to `Cc1ccccc1OCc1ccc(-c2nc(C#N)c(NCc3cccnc3)o2)o1`, the survival was active: 43%. For the molecule `COc1ccc(-c2noc(=O)n2Cc2ccccc2)cc1`, the survival was inactive: 75%.

Consider `CCc1ccc(C(=O)c2cn(CC(=O)Nc3ccc4c(c3)OCO4)c3ccc(OC)cc3c2=O)cc1`, for which the survival was inactive: 67%. Consider `Cn1c(C(=O)Nc2cccc(C(F)(F)F)c2)cc2c(=O)n3ccccc3nc21`, for which the survival was inactive: 98%. The same measure for `CCOC(=O)Cc1ccc(NC(=O)NCc2cccn2Cc2ccccc2)cc1`: active: -4%; for `Cc1ccc(NC(=O)CSc2nc(-c3cccs3)nc3cc(=O)[nH]n23)cc1`: inactive: 79%. In the case of `COc1ccc(-n2c(=O)c3sc4ccccc4c3n(CC(=O)Nc3ccccc3F)c2=O)cc1` it was inactive: 94%; in that of `CC(C)c1ccc(OC(=O)c2cc(-c3ccc(Cl)cc3)on2)cc1`, inactive: 98%.

Regarding `COc1ccc(CC(=O)NCC(c2ccc(N(C)C)cc2)N2CCOCC2)cc1` (stereo unspecified), the survival was inactive: 102%. The same measure for `Cc1ccc(-n2ncc3c(NCCCn4ccnc4)ncnc32)cc1Cl`: inactive: 72%; for `Nc1nnnn1/N=C/c1cccc(Br)c1`: inactive: 78%; for `CCN(CC)C(=O)Cn1c(=O)nc(-c2ccccc2F)c2cc(Cl)ccc21`: inactive: 77%. With `COC(=O)c1cnc(NCc2ccc(F)cc2)c2ccccc12`, the survival is inactive: 102%. Take `COc1ccc(N2C(=O)C(CC(=O)Nc3ccc(F)cc3)N(Cc3ccc4c(c3)OCO4)C2=O)cc1` (stereo unspecified): the survival was inactive: 76%. In the case of `Cc1cc(F)ccc1S(=O)(=O)Nc1ccc2c(c1)CCCN2C(=O)c1cccs1` it was inactive: 86%; in that of `CCCNC(=O)N1[C@H](c2ccc(C)s2)[C@@H](C)C(=O)[C@@H](C)[C@@H]1c1ccc(C)s1`, inactive: 44%. In the case of `COC(=O)c1cc2c(ccn2-c2ccc(F)cc2)n1CC(=O)N1CC(C)CC(C)C1` (stereo unspecified) it was inactive: 101%; in that of `Cc1ccc(Cl)cc1N1CCN(C(=O)c2cc(S(=O)(=O)N3CCCC3)cn2C)CC1`, inactive: 72%; in that of `Cc1ccc(Nc2nnc(-c3ccc(C)c(S(=O)(=O)N4CCOCC4)c3)c3ccccc23)c(C)c1`, inactive: 115%.

For `CCOc1ccc(C(=O)c2cn(Cc3ccc(Cl)cc3)c3cc(OC)c(OC)cc3c2=O)cc1`, the survival was inactive: 84%. In the case of `CCC(Cc1ccccc1)NC(=O)Cn1ncc2c3ccccc3n(Cc3ccccc3)c2c1=O` (stereo unspecified) it was inactive: 69%; in that of `CCc1nc2nc(C)cc(Nc3ccc(OC)cc3OC)n2n1`, inactive: 70%; in that of `Cc1oc(-c2ccc(Cl)cc2)nc1CN1CCC(C(=O)NCCCN2CCN(c3cccc(Cl)c3)CC2)CC1`, active: 42%.
